Among the data in PubChem BioAssay (NCI) are TGI and GI50 values, retold here.

“And” between values parts separate entries of the source, which are not always exact repeats. Equal entries are not always repeated.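 Grown in 96-well plates, cells were treated for 48 hours with each compound at five concentrations. Insufficient inhibition: endpoint recorded as highest concentration tested. GI50: concentration for 50% inhibition of growth. TGI: total growth inhibition.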

The subject of this assay is NCI-H322M lung. Nature of the assay: NCI-60 cell line screen, 48 h.
Compound `O=C1/C(=C/c2ccccc2O)N=C(c2ccccc2)N1c1nc2ccccc2s1` had a TGI above 100 µM.

Consider `COc1ccc2c(c1)n([O-])c1ccccc1[n+]2=O`, for which the GI50 is 23.8 µM and 48.7 µM; the TGI is above 100 µM.

On to `CCOC(=O)C(Cl)(NC(=O)c1c(F)c(F)c(F)c(F)c1F)C(F)(F)F` (stereo not given), for which the TGI was above 100 µM.

In the case of `Oc1[nH]c2ccc(Cl)cc2c1/C=c1/ccc2c(c1)N=C(c1ccc(F)cc1)N=2`, the GI50 was 2.62 µM and the TGI was found to be 7.22 µM.

Take `CCOC(=O)C(O)(NC(=O)c1ccccc1F)C(F)(F)F` (stereo not given): the TGI was above 100 µM.

Regarding `Cc1occc1C(=S)Nc1ccc(Cl)c(C(=O)OC(C)C2CC2)c1` (stereo not given), the TGI was above 100 µM.

`CCC(=O)c1c(NOC2OC(COC(C)=O)C(OC(C)=O)C(OC(C)=O)C2OC(C)=O)nc(OC)n(C)c1=O` (stereo not given) came in with a TGI above 100 µM.

For `COc1ccc(/C=c2\sc3n(c2=O)C(N)=C(C#N)C(c2ccc(OC)cc2)C=3c2nc3ccccc3[nH]2)cc1` (stereo not given), the TGI amounted to 61.5 µM.

`COc1ccc(OC)c(/C=C(/C)[N+](=O)[O-])c1`: the GI50 is 4.1 µM and the TGI came to 14.8 µM.

For the compound `O=[N+]([O-])c1cccc(C2ON2C2CCCCC2)c1` (stereo not given), the TGI is above 100 µM.

`COc1cc(C2C(C(=O)O)=C(COC(C)=O)Oc3cc4c(cc32)OCO4)cc(OC)c1OC` (stereo not given) came in with a TGI above 100 µM.

The compound `Cc1cc(C)c2c(n1)S(=O)(=O)N(CCCN1CCN(c3cccc(C(F)(F)F)c3)CC1)c1c-2nn(C)c1C` showed a TGI above 100 µM.

In the case of `CCCCCCCCCCCCCC[n+]1ccc2c(C)c3c(c(C)c2c1)c1cc(O)ccc1n3CC`, the GI50 is 0.443 µM and the TGI stood at 1.73 µM.

The compound `CSc1c(C#N)c(N)nc2c(N=Nc3ccc(Cl)cc3)c(N)nn12` gave a TGI of 12.5 µM.

The compound `CCOC(=O)C1OC(C2(C)OC3(OC4(C=CC3O)OC(C(C)C(=O)C(C)C(O)C(C)CC(C)c3c(Cl)cc(C)c(O)c3C(=O)O)C(C)CC4C)C(C)C2OC)CC1O` (stereo not given) came in with a TGI of 6.22 µM.

`NCCCNCCCCN(CCCN)/[N+]([O-])=N\O` gave a TGI above 100 µM.

The compound `O=C(/C=C/c1ccc(/C=C/C(=O)c2ccc(O)cc2)cc1)c1ccc(O)cc1` yielded a TGI above 100 µM.

As for `O=C(CC1(O)C(=O)Nc2c(Cl)cc(Cl)cc21)c1cccc2ccccc12` (stereo not given), the TGI turned out to be 33.5 µM.

Regarding `CCCCCCCCCCCCCP(=O)(O)OCC`, the TGI is above 100 µM.

The compound `COCCCNC(=O)CC(=O)NCCCOC` returned a TGI above 100 µM.

`CS(=O)(=O)N(N(CCCl)S(=O)(=O)c1ccccc1)S(C)(=O)=O` yielded a TGI above 100 µM.

For `CN1c2ccccc2C(C)(C)C12C=Cc1cc(O)ccc1O2` (stereo not given), the GI50 was 3.21 µM and the TGI was 13 µM.

As to `Clc1ccc(C2SCc3nc4ccccc4n32)cc1Cl` (stereo not given), the TGI came to 37 µM.

As to `COc1ccc2oc(OC)c(CC=C(C)C)c(=O)c2c1C`, the TGI was above 100 µM.

`O=CC[C@H]1CCc2ccccc2C12CCC(=O)CC2` yielded a TGI above 100 µM.

In turn, `O=C(O)c1cn2c3c(cc(N4CCN(CCO)CC4)cc3c1=O)SCC2` registered a TGI above 100 µM.

On to `Cn1c(-c2ccccc2)cc2c3ccsc3c3ccsc3c21`, for which the TGI was above 100 µM.

With `CN(C)c1ccc(C(Cc2ccc3ccccc3n2)Cc2ccc3ccccc3n2)cc1`, the GI50 was 6.28 µM and the TGI was above 100 µM.

In the case of `Cc1ccc(O)c(-c2cc(-c3cccc(Cl)c3)c(C#N)c(N)n2)c1`, the TGI was 97.6 µM.

For `Cc1cccc2c(=O)c3c(sc12)c(NCCNCCO)nc1ccccc13`, the GI50 is 1.53 µM and the TGI was 2.92 µM.

`S=c1cc(S)sc2c1c(=S)sc1nc3ccccn3c(=S)c12`: the TGI was above 100 µM.

Consider `CCCCNC(=S)Nc1nc(C(=O)NNC(=S)NC2CCCCC2)cs1`, for which the TGI is above 100 µM.

In the case of `O=[N+]([O-])c1cccc(-c2oc(C=Nc3ccccc3)c([N+](=O)[O-])c2-c2cccc([N+](=O)[O-])c2)c1`, the TGI is above 100 µM.

Turning to `COc1cc2c3c(n(CCCI)c(=O)c2cc1OC)-c1cc2c(cc1C3=O)OCO2`, the GI50 is 5.67 µM and the TGI was above 100 µM.

For the compound `CCN1CCN(c2nc3ccc([N+](=O)[O-])cc3nc2C(=O)c2ccccc2)CC1`, the TGI was above 100 µM.

In turn, `COc1ccc(/C(C#N)=C/c2ccc(OC)c(OC)c2)cc1` displayed a TGI above 100 µM.

In turn, `CCOC(=O)C(=Cc1ccc(Oc2ccccc2)cc1)C(=O)OCC` gave a TGI of 26.6 µM.

For the compound `N=c1c2c(-c3ccccc3)c[nH]c2ncn1N`, the TGI is above 100 µM.

On to `CCC1CCc2nc3sc(C(=O)Nc4cccc(F)c4)c(N)c3cc2C1` (stereo not given), for which the GI50 is above 100 µM and the TGI is above 100 µM.

With `CCc1cccc(C(C)C)c1N1C(=O)C(=O)C(c2nc3ccccc3s2)C(=O)C1=O`, the TGI is above 50 µM.

The compound `Cc1cc(C)nc(NS(=O)(=O)c2ccc(Nc3c4ccc(Cl)cc4nc4c(C(=O)Nc5ccc(S(N)(=O)=O)cc5)cccc34)cc2)n1` gave a TGI of 64 µM.

Consider `O=C(O)/C(=C/C=C/c1ccccc1)c1csc(-c2nc(/C(=C\C=C\c3ccccc3)C(=O)O)cs2)n1`, for which the TGI was above 100 µM.

The compound `Brc1ccc2c([C@H]3CN[C@@H](c4c[nH]c5cc(Br)ccc45)CN3)c[nH]c2c1` registered a TGI of 18.3 µM.

Regarding `O=C(CCCCCCC(=O)Nc1cccnc1)NO`, the TGI is above 100 µM.

Regarding `c1csc(-c2cc(-c3cccs3)c(-c3cccs3)s2)c1`, the TGI was above 100 µM.

`COc1cc2c3c(c1OC)-c1c(ccc4c1OCO4)CC3(C#N)N(C(=O)c1ccccc1)CC2` (stereo not given): the TGI is above 100 µM.

For `O=C(Nc1ccc2ncnc(Nc3ccc(Oc4cccc(F)c4)c(Cl)c3)c2c1)c1ccc(CNCCO)cc1`, the GI50 was 1.33 µM and the TGI worked out at 2.68 µM.

In turn, `COc1ccc2sc(-n3nc4ccccc4c3Nc3nc4ccc(OC)cc4s3)nc2c1` returned a TGI of 7.83 µM.

With `CCCCCCCCCc1cccc(N2C(N)=NC(N)=NC2(C)C)c1`, the TGI worked out at 3.33 µM.

On to `N#Cc1c(N)nc(N2CCOCC2)c(C#N)c1-c1cccnc1`, for which the GI50 is above 100 µM and the TGI is above 100 µM.

`C1CCN(c2nc(=[N+]3CCCCC3)ss2)CC1` displayed a TGI above 100 µM.

Consider `C[C@]1(CO)CCC[C@@]2(C)C1CC[C@H]1CC3C[C@]12CC[C@]3(C)O` (stereo not given in full), for which the TGI was above 100 µM.

In turn, `COC(=O)CCCC(=O)O` came in with a TGI above 100 µM.

As to `N#C/C(=C\NC(=S)c1ccncc1)c1nc2ccccc2s1`, the TGI is above 100 µM.

As to `CCCCCCCCCCCC1CCCC(C)N1` (stereo not given), the GI50 was 15.4 µM; the TGI is 29.8 µM and 157 µM.

In turn, `C/C(=C/C(=O)Nn1c(Cc2ccccc2)n[nH]c1=O)C(=O)O` showed a TGI above 100 µM.

For `O=C(Cc1nc2ccccc2s1)Nc1cccc(C(F)(F)F)c1`, the TGI came to 27.3 µM.

For the compound `CC(=O)O[C@]1(C(C)=O)CC[C@H]2[C@@H]3C=C(C)C4=CC(=O)CC[C@]4(C)[C@H]3CC[C@@]21C`, the GI50 was above 100 µM and the TGI is above 100 µM.

Turning to `O=C(Nc1ccccc1)NS(=O)(=O)c1ccc(-n2nc3c(c2-c2ccc(Cl)cc2)Cc2ccccc2-3)cc1`, the GI50 was 25.3 µM and the TGI is above 100 µM.

In the case of `Cc1ccc(-n2[nH]nc(C#N)c2=O)cc1`, the TGI was above 100 µM.

`O=C(/C=C/c1ccc(O)c(O)c1)c1cc(O)cc(O)c1` registered a TGI of 28.6 µM.
